Laboratory results: publication PMC4336329 (PLoS ONE, 2015)
In all, about 310,000 compounds went through this assay and about 2,200 (0.71%) showed an effect of 50% or more. Effects have a minus sign here. Some of the results follow.

molecular target: human ether-à-go-go-related gene (hERG) potassium channel (human, UniProt Q12809); experiment: primary screen, population patch clamp on CHO cells stably expressing hERG
Sequence (Q12809 whole entry, looked up): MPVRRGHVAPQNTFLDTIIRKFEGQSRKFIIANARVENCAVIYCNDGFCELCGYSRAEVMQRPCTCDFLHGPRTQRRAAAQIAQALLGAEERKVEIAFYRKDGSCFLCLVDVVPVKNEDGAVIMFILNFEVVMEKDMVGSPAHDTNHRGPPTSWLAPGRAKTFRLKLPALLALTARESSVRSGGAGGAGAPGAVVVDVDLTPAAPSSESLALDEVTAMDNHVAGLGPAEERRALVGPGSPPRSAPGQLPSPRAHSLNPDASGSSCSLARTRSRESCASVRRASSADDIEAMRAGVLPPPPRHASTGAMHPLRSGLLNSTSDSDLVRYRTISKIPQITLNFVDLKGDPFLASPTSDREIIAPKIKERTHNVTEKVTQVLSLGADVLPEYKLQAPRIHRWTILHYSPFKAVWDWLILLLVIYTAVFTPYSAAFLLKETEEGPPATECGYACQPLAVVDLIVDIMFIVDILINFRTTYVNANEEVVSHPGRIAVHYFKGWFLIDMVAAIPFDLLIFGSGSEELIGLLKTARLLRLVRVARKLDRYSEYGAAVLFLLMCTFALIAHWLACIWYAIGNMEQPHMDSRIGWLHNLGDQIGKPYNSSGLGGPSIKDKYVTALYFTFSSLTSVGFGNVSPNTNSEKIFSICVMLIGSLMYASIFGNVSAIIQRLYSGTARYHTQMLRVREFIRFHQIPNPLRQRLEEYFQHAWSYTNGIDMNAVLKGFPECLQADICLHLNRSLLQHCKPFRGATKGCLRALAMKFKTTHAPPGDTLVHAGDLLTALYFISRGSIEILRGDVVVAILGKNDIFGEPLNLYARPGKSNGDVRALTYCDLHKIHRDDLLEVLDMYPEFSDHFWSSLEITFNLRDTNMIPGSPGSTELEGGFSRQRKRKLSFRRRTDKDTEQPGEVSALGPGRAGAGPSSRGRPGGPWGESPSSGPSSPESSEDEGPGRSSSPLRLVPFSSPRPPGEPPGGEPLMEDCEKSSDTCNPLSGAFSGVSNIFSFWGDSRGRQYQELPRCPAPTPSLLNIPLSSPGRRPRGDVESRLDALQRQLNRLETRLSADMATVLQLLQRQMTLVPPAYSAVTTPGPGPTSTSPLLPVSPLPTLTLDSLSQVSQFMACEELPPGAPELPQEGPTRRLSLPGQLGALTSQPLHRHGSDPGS

Row | SMILES | hERG current change (%, negative = inhibition) at 1uM
1 | O=C(CN1C(=O)C2CCCCC2C1=O)N1CCN(c2ncccn2)CC1 (centres unmarked) | 9.92%
2 | Clc1ccc(CO/N=C2\CCCc3nonc32)c(Cl)c1 | 4.71%
3 | COc1ccc(Cc2n[nH]c(=S)n(N)c2=O)cc1 | 15.6%
4 | CN(C)S(=O)(=O)c1ccc(C(=O)NCC(c2cccs2)N2CCOCC2)cc1 (centres unmarked) | 8.86%
5 | COc1ccc(-c2cc(C(F)(F)F)n3ncc(C(=O)NCC4CCCO4)c3n2)cc1OC (centres unmarked) | 14.6%
6 | COCCN(Cc1ccccc1)C(=O)c1ccc2c(c1)NC(=O)CS2 | 11.4%
7 | COc1cc(Cl)c(CN2CCCC(CO)(Cc3ccccc3F)C2)cc1OC (centres unmarked) | 6.94%
8 | Cn1c(CNC(=O)c2ccccc2F)nnc1SCCOc1ccccc1 | 8.23%
9 | COC(=O)C1=C(c2c(C)noc2C)C[C@@H]2CC[C@H]1N2C(=O)NCCCOC(C)C | 5.06%
10 | CCN(CC)C(CNS(=O)(=O)c1ccc(Cl)cc1)c1ccccc1 (centres unmarked) | 9.21%
11 | CC1CC(C)CN(C(=O)COC(=O)C2CCN(S(=O)(=O)c3ccc4c(c3)OCCO4)CC2)C1 (centres unmarked) | 15.4%
12 | CN=C1S/C(=C\c2cc(C)n(-c3ccccc3F)c2C)C(=O)N1C | 3.99%
13 | Cn1c(-c2cccc([N+](=O)[O-])c2)cnc1NCc1ccc(C#N)cc1.O=C(O)C(=O)O | -56.4%
14 | Cc1ccc(N(CC(=O)N2CCCC2)S(C)(=O)=O)c(C)c1 | 16.6%
15 | Cc1ccc(CNC(=O)c2cccnc2Sc2cccc(Cl)c2)cc1 | -0.474%
16 | COc1ccc(OC)c(CC(NC(C)=O)C(=O)NC2CCN(c3cc(C)nc4ncnn34)CC2)c1 (centres unmarked) | 37.2%
17 | O=C(NC(=O)C(F)(F)F)Nc1ccc(S(=O)(=O)Nc2nccs2)cc1 | 15.5%
18 | COc1ccccc1CCNC(=O)CSc1nc(-c2ccco2)cc(C(F)(F)F)n1 | 13.5%
19 | CN(C)CC(C)(C)CNC(=O)c1cc(=O)c2ccccc2o1.Cl | 14.1%
20 | COc1cccc(C2=NOC(C(=O)Nc3cc(OC)c(OC)c(OC)c3)C2)c1 (centres unmarked) | 10.1%
21 | N#CCCn1nc(-c2ccc([N+](=O)[O-])cc2)cc1Nc1ccccc1NC(=O)C(F)(F)F | 10.6%
22 | S=C1NC[C@H](c2ccccc2)N1CC1CCCCC1 | -1.22%

Row | SMILES | hERG current change (%, negative = inhibition) at 1uM
23 | COc1ccc(/C=N/NC(=O)CN2CCSCC2)cc1C | 8.12%
24 | C=CCn1c(SCC(=O)N2CCc3ccccc3C2)nc2ccccc2c1=O | -3.47%
25 | C=CCNC(=O)CN(c1cc(Cl)ccc1OC)S(=O)(=O)c1ccc(C)c([N+](=O)[O-])c1 | 7.84%
26 | CCCNS(=O)(=O)c1cc(Br)cc2c1N(C(=O)CC)CC2 | 4.42%
27 | COc1cccc(-c2sc3ccc(OC)cc3c2-c2ccc(O)cc2)c1 | 16.6%
28 | COc1ccc(C(=O)NNC(=O)C2(C)CC2(Br)Br)cc1 (centres unmarked) | 19%
29 | Cc1n[nH]c(C)c1S(=O)(=O)N1CCC(C(=O)O)CC1.Cl | 12.6%
30 | COc1cccc(-c2nc(CS(=O)(=O)CC(=O)Nc3ccccc3C)c(C)o2)c1 | 10.5%
31 | COc1ccc(/C=N/NC(=O)c2cccc([N+](=O)[O-])c2)cc1OS(=O)(=O)c1ccccc1 | 11.7%
32 | O=[N+]([O-])c1ccccc1-c1cc(-c2ccccc2)cc(-c2ccccc2)[n+]1Cc1ccccc1Cl.[O-][Cl+3]([O-])([O-])[O-] | -16.1%
33 | O=C1c2cccnc2C(Nc2ccccc2)N1Cc1ccco1 (centres unmarked) | 1.08%
34 | COc1ccc(S(=O)(=O)N2CCOC2CNC(=O)C(=O)NCc2ccco2)cc1OC (centres unmarked) | 0.774%
35 | Oc1ccc(/C=N/Nc2ncnc3nc[nH]c23)cc1 | 13.6%
36 | CCc1ccc(CNC(=O)CCS(=O)(=O)Cc2ccc(C)cc2)cc1 | 3.38%
37 | Cc1ccc(-c2nnn(CC(=O)N3CCCCC3)n2)c(-n2cnnn2)c1 | 3.23%
38 | CNCC(C)c1ccccc1.Cl (centres unmarked) | 11.2%
39 | CCCc1cc(=O)[nH]c(SCC(=O)c2[nH]c(C)c(C(=O)OCC)c2C)n1 | -3.89%
40 | Cn1cnc2c1c(=O)n(Cc1ccccc1C#N)c(=O)n2C | 15.8%
41 | C=CCN(CC=C)C(=O)Cc1ccc(F)cc1 | 13.6%
42 | COc1ccccc1N1C(=O)C2ON(c3ccccc3)C(c3ccc(N(C)C)cc3)C2C1=O (centres unmarked) | 9.18%
43 | COCC(=O)N(CCc1ccc(OC)c(OC)c1)Cc1nc2ccccc2c(=O)[nH]1 | 4.96%
44 | Cc1ccc(-c2nn(-c3ccccc3)cc2C(=O)NC2CCC(O)CC2)cc1 (centres unmarked) | 3.57%
